# Results reported in patent US9902776B2, “Anti-EGFR antibody and anti-c-Met/anti-EGFR bispecific antibodies comprising the same” (Samsung Electronics Co., Ltd., priority 2013, dated 2018).
# B1: huAbF46-H4-A1: affinity-matured humanized anti-c-Met antibody, L3-1 origin (antibody)
# heavy: EVQLVESGGGLVQPGGSLRLSCAASGFTFTDYYMSWVRQAPGKGLEWLGFIRNKANGYTTEYSASVKGRFTISRDNSKNTLYLQMNSLRAEDTAVYYCARDNWFAYWGQGTLVTVSSASTKGPSVFPLAPSSKSTSGGTAALGCLVKDYFPEPVTVSWNSGALTSGVHTFPAVLQSSGLYSLSSVVTVPSSSLGTQTYICNVNHKPSNTKVDKKVEPKSCDCH[human IgG1 Fc not written out]
# light: DIQMTQSPSSLSASVGDRVTITCKSSQSLLASGNQNNYLAWHQQKPGKAPKMLIIWASTRVSGVPSRFSGSGSGTDFTLTISSLQPEDFATYYCQQSYSRPYTFGQGTKVEIKRTVAAPSVFIFPPSDEQLKSGTASVVCLLNNFYPREAKVQWKVDNALQSGNSQESVTEQDSKDSTYSLSSTLTLSKADYEKHKVYACEVTHQGLSSPVTKSFNRGEC
# Key:
# Settings in all cases: rank among huAbF46-H4-A1, -A2, -A3, -A5
# [1] = tested on: Akt; test: Akt phosphorylation by the four affinity-matured antibodies; format: cell-based
# [2] = target: T1, c-Met (Homo sapiens, UniProt P08581); test: Affinity for c-Met of the four affinity-matured antibodies; format: binding; parameters: endogenous in cells; host or cells: SNU638 (A8, A11); MKN45 (A11)
# T1 sequence (P08581 25-1390): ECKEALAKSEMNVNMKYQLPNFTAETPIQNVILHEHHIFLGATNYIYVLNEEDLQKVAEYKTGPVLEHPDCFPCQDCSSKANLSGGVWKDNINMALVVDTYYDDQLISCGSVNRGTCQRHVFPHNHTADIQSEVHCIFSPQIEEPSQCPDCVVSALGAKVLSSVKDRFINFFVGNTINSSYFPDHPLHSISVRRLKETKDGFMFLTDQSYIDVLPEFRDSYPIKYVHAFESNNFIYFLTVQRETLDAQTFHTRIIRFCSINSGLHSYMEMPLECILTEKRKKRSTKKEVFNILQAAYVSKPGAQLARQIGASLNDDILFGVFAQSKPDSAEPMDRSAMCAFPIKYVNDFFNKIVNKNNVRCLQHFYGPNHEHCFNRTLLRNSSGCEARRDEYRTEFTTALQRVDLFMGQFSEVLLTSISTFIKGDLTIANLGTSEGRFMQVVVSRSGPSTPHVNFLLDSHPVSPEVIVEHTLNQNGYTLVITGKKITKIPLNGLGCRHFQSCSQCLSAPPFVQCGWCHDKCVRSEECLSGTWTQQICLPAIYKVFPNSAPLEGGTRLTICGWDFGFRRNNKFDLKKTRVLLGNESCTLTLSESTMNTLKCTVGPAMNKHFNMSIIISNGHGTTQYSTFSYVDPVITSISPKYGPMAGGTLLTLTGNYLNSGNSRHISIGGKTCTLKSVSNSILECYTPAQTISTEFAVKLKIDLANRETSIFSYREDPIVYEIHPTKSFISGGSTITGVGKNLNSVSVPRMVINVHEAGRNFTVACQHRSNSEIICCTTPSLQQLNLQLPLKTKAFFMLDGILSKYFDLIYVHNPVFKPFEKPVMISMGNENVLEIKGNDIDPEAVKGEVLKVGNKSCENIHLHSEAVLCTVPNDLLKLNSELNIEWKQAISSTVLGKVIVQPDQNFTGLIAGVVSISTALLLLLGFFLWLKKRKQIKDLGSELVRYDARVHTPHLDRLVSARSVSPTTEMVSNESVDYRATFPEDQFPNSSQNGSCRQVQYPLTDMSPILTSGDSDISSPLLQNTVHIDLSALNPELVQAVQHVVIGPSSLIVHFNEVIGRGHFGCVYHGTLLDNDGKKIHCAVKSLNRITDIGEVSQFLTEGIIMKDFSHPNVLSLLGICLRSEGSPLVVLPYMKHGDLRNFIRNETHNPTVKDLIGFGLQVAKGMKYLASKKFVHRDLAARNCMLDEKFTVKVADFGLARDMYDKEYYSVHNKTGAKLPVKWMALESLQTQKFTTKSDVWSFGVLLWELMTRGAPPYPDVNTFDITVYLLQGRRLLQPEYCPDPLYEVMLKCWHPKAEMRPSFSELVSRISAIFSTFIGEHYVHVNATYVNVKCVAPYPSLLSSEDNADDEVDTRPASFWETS
# [3] = target: T1, c-Met; test: c-Met degradation degree of the four affinity-matured antibodies; format: cell-based; parameters: endogenous in cells; host or cells: SNU638 (A8, A11); MKN45 (A11)
molecule,measurement,setting,value
B1,Akt phosphorylation among the four selected antibodies,[1],lowest
same,affinity for c-Met among the four selected antibodies,[2],highest
same,c-Met degradation degree among the four selected antibodies,[3],lowest
